Source: PMC6925247
These are yes or no findings as the source states them, for the method shown. Binding seen in cells or lysates may run through a third protein. Some binding calls cover weakened binding; strength is not graded here. For part of these data: Sequences can lack the tags named with a protein. Blank lines part the entries; values can stand above or below the molecule they belong to.

Protein sequences, listed by entry. Tags and fused reporters are not part of them.
UniProt P05198: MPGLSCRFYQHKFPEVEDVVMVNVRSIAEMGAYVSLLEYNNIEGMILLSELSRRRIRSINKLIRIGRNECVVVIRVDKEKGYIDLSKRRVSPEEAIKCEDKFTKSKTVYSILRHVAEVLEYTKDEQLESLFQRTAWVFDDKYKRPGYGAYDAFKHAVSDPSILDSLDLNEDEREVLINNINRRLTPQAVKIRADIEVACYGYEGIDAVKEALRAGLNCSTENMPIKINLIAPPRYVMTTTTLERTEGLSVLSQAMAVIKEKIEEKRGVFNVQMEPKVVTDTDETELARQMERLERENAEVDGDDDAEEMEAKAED

Legend:
[1] = biological target: T1, HA-tagged TIPRL (human) (UniProt O75663); assay: co-IP; IP with anti-HA antibody of 293T cells co-transfected with HA-TIPRL along with GST-Mock, GST-eIF2α, GST-eIF2β or GST-eIF2γ; Western blot
T1 sequence: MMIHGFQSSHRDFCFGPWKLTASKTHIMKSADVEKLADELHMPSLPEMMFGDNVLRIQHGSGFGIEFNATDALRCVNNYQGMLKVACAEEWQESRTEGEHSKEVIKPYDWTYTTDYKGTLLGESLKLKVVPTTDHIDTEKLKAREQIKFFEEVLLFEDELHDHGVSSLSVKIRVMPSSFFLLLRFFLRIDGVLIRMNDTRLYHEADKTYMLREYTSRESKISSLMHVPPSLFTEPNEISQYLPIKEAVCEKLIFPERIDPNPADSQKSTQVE

[2] = biological target: T2, TOR signaling pathway regulator-like (TIPRL) protein (human (endogenous in A549)) (UniProt O75663); assay: co-IP; IP of A549 cell lysates with anti-TIPRL antibody and protein G-agarose, 2 h at 4 °C, washed with TBS, Western blot; endogenous proteins; cells untreated or incubated in EBSS for 2 h
T2 sequence: T1 sequence

[3] = biological target: T1, HA-tagged TIPRL (human); assay: co-IP; IP with anti-HA antibody of lysates of 293T cells transfected with gradual concentration of HA-tagged TIPRL; endogenous eIF2α detected by Western blot
[4] = biological target: GST-eIF2α (human) (UniProt P05198); assay: pull-down; GST precipitated from lysates of 293T cells co-transfected with GST-tagged eIF2 subunits and HA-tagged TIPRL or its deletion mutants; Western blot
[5] = biological target: eukaryotic initiation factor 2α (eIF2α) (human (endogenous in A549)) (UniProt P05198); assay: co-IP; IP assay of A549 cells mixed with synthetic TIPRL-mimic peptides (86–100 or 174–188); endogenous eIF2α; only the binder purified

binding [1]: binds
Molecule: GST-eIF2α (from UniProt P05198 1-315)

binding [2]: binds
Molecule: eukaryotic initiation factor 2α (eIF2α) (from UniProt P05198 1-315)

binding [3]: binds
Molecule: endogenous eIF2α in 293T cells (from UniProt P05198 1-315)

binding [4]: binds
B1: HA-tagged TIPRL (protein, UniProt O75663 1-272)
chain: T1 sequence

binding [5]: no binding
Molecule: ACAEEWQESRTEGEH (peptide, UniProt O75663 86-100) [Negative Control peptide (86–100 amino acids)]

binding [5]: binds
Molecule: VMPSSFFLLLRFFLR (peptide, UniProt O75663 174-188, fluorescein isothiocyanate (FITC) tag, end not stated) [TIPRL mimic peptide (174–188 amino acids)]
